The full ranking holds about 110,000 compounds; the median of “z-score” is about -0.1, and the highest 2% start at about 2. This is one part of the list.
What follows are molecules tested against Metabotropic glutamate receptor 8 (Rattus norvegicus) (UniProt P70579) (assay: mGluR8 Gi/Go-coupled signaling modulation – cell-based, rat, thallium flux, HTS, primary screen (AID 488969)). Conditions: HEK293 rat mGluR8, GIRK (G protein-gated inwardly rectifying potassium channel) thallium flux, FluoZin2; at 10 µM; stronger effect = higher value; submaximal glutamate (EC20) added with thallium.
Sequence of UniProt P70579 (P70579 whole entry, looked up): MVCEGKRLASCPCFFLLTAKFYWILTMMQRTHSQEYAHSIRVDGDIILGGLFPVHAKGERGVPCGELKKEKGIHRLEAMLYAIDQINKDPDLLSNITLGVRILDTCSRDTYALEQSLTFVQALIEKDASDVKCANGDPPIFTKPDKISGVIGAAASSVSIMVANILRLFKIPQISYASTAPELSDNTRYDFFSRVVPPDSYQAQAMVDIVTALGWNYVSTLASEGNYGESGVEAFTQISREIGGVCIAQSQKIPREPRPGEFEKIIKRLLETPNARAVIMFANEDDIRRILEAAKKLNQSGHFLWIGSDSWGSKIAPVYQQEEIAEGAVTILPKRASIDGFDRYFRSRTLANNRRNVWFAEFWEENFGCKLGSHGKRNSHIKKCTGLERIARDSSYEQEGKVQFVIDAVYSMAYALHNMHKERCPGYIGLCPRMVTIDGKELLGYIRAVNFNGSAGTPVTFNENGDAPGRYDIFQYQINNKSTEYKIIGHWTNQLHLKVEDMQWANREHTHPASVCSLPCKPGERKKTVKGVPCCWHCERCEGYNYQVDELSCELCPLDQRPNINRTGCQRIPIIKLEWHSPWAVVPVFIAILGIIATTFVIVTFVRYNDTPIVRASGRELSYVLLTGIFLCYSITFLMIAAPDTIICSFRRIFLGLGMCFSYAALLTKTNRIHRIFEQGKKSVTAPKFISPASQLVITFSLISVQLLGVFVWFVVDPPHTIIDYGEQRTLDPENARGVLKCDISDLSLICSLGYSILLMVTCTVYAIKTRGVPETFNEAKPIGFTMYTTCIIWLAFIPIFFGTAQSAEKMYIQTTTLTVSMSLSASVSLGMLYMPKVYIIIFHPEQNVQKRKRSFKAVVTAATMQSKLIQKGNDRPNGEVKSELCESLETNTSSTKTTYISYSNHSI

| Structure (SMILES) | z-score |
| --- | --- |
| CCCc1nc2ccccc2c(=O)n1NC(=O)c1c(O)c2cccc3c2n(c1=O)CCC3 | 0.201 |
| CC1(C)CC(=O)C(CC(=O)Nc2ccc(S(N)(=O)=O)cc2)=C(O)C1 | 0.127 |
| CN1CCC2(CC1)N=C(c1ccc(F)cc1)C(=S)N2C(=O)c1ccc(C(C)(C)C)cc1 | -0.387 |
| CN1CCC(OC(=O)C23CCC(C)(C(=O)O2)C3(C)C)CC1 (stereo not drawn) | 0.0368 |
| CNC(=O)/C(C#N)=C/c1c(N(Cc2ccccc2)Cc2ccccc2)nc2ccccn2c1=O | -0.323 |
| COc1ccccc1NS(=O)(=O)c1cccc(C(=O)OCc2nc3ccccc3s2)c1 | -0.205 |
| CC(=O)c1ccc(NC(=S)NNC(=O)c2ccncc2)cc1 | -0.0973 |
| COc1ccc(/C=N/NC(=O)c2nc(-c3ccccc3)n(-c3ccccc3)n2)cc1OC | -0.197 |
| CC(=O)c1cnc2cc(C)nn2c1C | 0.362 |
| NS(=O)(=O)c1ccc(N2N=C(c3ccccc3)CC2c2ccccc2)cc1 (stereo not drawn) | -0.262 |
| O=C(CSc1nnc(-c2ccccc2)o1)NC1CCCCC1 | 0.0366 |
| O=C(NC1CCCCC1)C1Cc2ccccc2CN1S(=O)(=O)c1ccc(F)cc1 (stereo not drawn) | -0.922 |
| CCOC(=O)COc1ccc(/C=C/[N+](=O)[O-])c(OCC(=O)OCC)c1 | -0.38 |
| CCC(C)(C)C1CCc2nc3ccccc3c(C(=O)OC(C)C(=O)Nc3c(C)n(C)n(-c4ccccc4)c3=O)c2C1 (stereo not drawn) | -0.36 |
| COC(=O)Nc1cc([N+](=O)[O-])ccc1OC | -0.411 |
| Cc1ccc(-c2csc3nnc(SCC(=O)Nc4nsc(-c5ccccc5)n4)n23)cc1 | -0.355 |
| O=C1/C(=C\c2cccs2)Sc2ccc3ccccc3c21 | -0.447 |
| COC(=O)c1ccc(NC(=O)C2CCN(C(=O)c3cc(OC)c(OC)c(OC)c3)CC2)cc1 | 0.0856 |
| CCCn1c(=S)[nH]c2cc(C(=O)N3CCN(c4ccccc4OC)CC3)ccc2c1=O | 0.596 |
| COc1ccc(/C=N/Nc2nc(-c3cccc(S(=O)(=O)N4CCCC4)c3)cs2)c(OC)c1 | -0.38 |
| COc1ccc(/C=C/C(=O)c2ccoc2)cc1 | -0.4 |
| Cc1cc(NC(=O)CCN2C(=O)C3C4CCC(C4)C3C2=O)c(C)cc1Br (stereo not drawn) | 1.14 |
| Cc1cccc(/C=C/c2nc3ccccc3c(=O)n2Cc2ccccc2)c1 | -0.0988 |
| Cc1ccccc1-n1c(SCC(=O)c2cc(C)n(C)c2C)nnc1-c1cccnc1 | -1.19 |
| COCCn1c(SCC(=O)Nc2ccc(S(N)(=O)=O)cc2)nc2ccccc21 | -0.086 |
| CC(=O)c1ccc2c(ccc3ccccc32)c1 | -0.153 |
| COc1ccc(C(=O)N2CCC(C(=O)c3ccc(F)cc3)CC2)cc1 | -1.67 |
| O=C(CN(Cc1cccs1)C(=O)CNS(=O)(=O)c1ccc(F)cc1)NCc1ccco1 | -0.317 |
